Results published in the supplement of paper PMC4604168 (melanoma cell lines).
The other results are listed elsewhere or left out. Single values are uncertain, as repeats are few or missing.

system: G361; test: cell count relative to DMSO control; melanoma cells; higher = more viable cells; settings: library dose: low library concentration; 72 h
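Further: cell number obtained by counting DAPI-stained nuclei in high-throughput microscope images with image analysis software, screen run in 1,536-well plates.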

For Cc1cc(SCc2sc(-c3ccc(C(F)(F)F)c(F)c3)nc2C)ccc1OCC(=O)O + Oc1cc(-c2nc(-c3ccccc3)[nH]c2-c2ccncc2)ccc1Cl [L779450] (first compound 2 µM, partner dose 0.2 µM), which cell count is on record?
The cell count was 101%.

How did the cell count turn out when O=S(=O)(c1ccccc1)N(CC(F)(F)F)c1ccc(C(O)(C(F)(F)F)C(F)(F)F)cc1 + Cc1cc(SCc2sc(-c3ccc(C(F)(F)F)c(F)c3)nc2C)ccc1OCC(=O)O [GW0742] (first compound 1.4 µM, partner dose 2 µM) was run?
Its cell count is 90.4%.

Which cell count does the source give for COC(=O)c1sccc1S(=O)(=O)Nc1ccc(Nc2ccccc2)cc1OC + C/C(O)=C(\C#N)C(=O)Nc1cc(Br)ccc1Br [LFM-A13] (first compound 1 µM, partner dose 2 µM) here?
Its cell count is 87%.

Which cell count does the source give for Cc1ccc(Nc2nccc(N(C)c3ccc4c(C)n(C)nc4c3)n2)cc1S(N)(=O)=O [Pazopanib] + N.N.[Cl][Pt][Cl] [cisplatin] (first compound 0.4 µM, partner dose 1.6 µM) here?
The cell count was 104%.

For COc1cc(Nc2ncc(F)c(Nc3ccc4c(n3)NC(=O)C(C)(C)O4)n2)cc(OC)c1OC [Tamatinib] + O=C(Oc1ccc([N+](=O)[O-])cc1)N1CCC(C(O)(c2ccc3c(c2)OCO3)c2ccc3c(c2)OCO3)CC1 [JZL184] (first compound 0.4 µM, partner dose 1 µM), which cell count is on record?
The cell count was 99.8%.

system: IPC-298; test: as above; settings: library dose: low library concentration; 72 h

How did the cell count turn out when Cc1cc(N2CCOCC2)cc2[nH]c(-c3c(NC[C@@H](O)c4cccc(Cl)c4)cc[nH]c3=O)nc12 + O=C(Oc1ccc([N+](=O)[O-])cc1)N1CCC(C(O)(c2ccc3c(c2)OCO3)c2ccc3c(c2)OCO3)CC1 [JZL184] (first compound 0.2 µM, partner dose 1 µM) was run?
Its cell count is 96.4%.

COc1cc2c(Oc3ccc4[nH]c(C)cc4c3F)ncnc2cc1OCCCN1CCCC1 [cediranib] + O=C(Oc1ccc([N+](=O)[O-])cc1)N1CCC(C(O)(c2ccc3c(c2)OCO3)c2ccc3c(c2)OCO3)CC1 [JZL184] (first compound 0.4 µM, partner dose 1 µM) was tested. Which cell count did it give?
Its cell count is 107%.

With CCN(CC)CCNC(=O)c1c(C)[nH]c(/C=C2\C(=O)Nc3ccc(F)cc32)c1C [sunitinib] + C[As](C)SC[C@H](NC(=O)CC[C@H](N)C(=O)O)C(=O)NCC(=O)O [Darinaparsin] (first compound 0.4 µM, partner dose 0.4 µM) as the compound, how does the cell count read?
Its cell count is 91.8%.

For COc1ccc2c(c1)CCC1C2CCC2(C)C(NCCCCCCN3C(=O)C=CC3=O)CCC12 (stereo not drawn) + C/C(O)=C(\C#N)C(=O)Nc1cc(Br)ccc1Br [LFM-A13] (first compound 0.4 µM, partner dose 2 µM), which cell count is on record?
The cell count was 104%.

COc1cc2c(Oc3ccc4[nH]c(C)cc4c3F)ncnc2cc1OCCCN1CCCC1 [cediranib] + Cc1cc(SCc2sc(-c3ccc(C(F)(F)F)c(F)c3)nc2C)ccc1OCC(=O)O [GW0742] (first compound 0.4 µM, partner dose 2 µM) was tested. Which cell count did it give?
The cell count was 104%.

Cn1cncc1[C@@](N)(c1ccc(Cl)cc1)c1ccc2c(c1)c(-c1cccc(Cl)c1)cc(=O)n2C [tipifarnib] + Cc1cc(SCc2sc(-c3ccc(C(F)(F)F)c(F)c3)nc2C)ccc1OCC(=O)O [GW0742] (first compound 0.01 µM, partner dose 2 µM) was tested. Which cell count did it give?
The cell count was 102%.

For O=C(Nc1ccccc1)c1cc([N+](=O)[O-])ccc1Cl + Cc1cc(SCc2sc(-c3ccc(C(F)(F)F)c(F)c3)nc2C)ccc1OCC(=O)O [GW0742] (first compound 2 µM, partner dose 2 µM), which cell count is on record?
Its cell count is 102%.

With O=C(Oc1ccc([N+](=O)[O-])cc1)N1CCC(C(O)(c2ccc3c(c2)OCO3)c2ccc3c(c2)OCO3)CC1 + O=c1cc(-c2cccc3c2Sc2ccccc2S3)oc(N2CCOCC2)c1 [KU55933] (first compound 1 µM, partner dose 1 µM) as the compound, how does the cell count read?
The cell count was 111%.

With C[C@]1(c2nc3c(C(N)=O)cccc3[nH]2)CCCN1 [Veliparib] + C/C(O)=C(\C#N)C(=O)Nc1cc(Br)ccc1Br [LFM-A13] (first compound 1.4 µM, partner dose 2 µM) as the compound, how does the cell count read?
Its cell count is 104%.

With O=C(Nc1ccccc1)c1cc([N+](=O)[O-])ccc1Cl + O=C(Oc1ccc([N+](=O)[O-])cc1)N1CCC(C(O)(c2ccc3c(c2)OCO3)c2ccc3c(c2)OCO3)CC1 [JZL184] (first compound 2 µM, partner dose 1 µM) as the compound, how does the cell count read?
The cell count was 98.7%.

For CCc1ccc(CCOc2ccc(CC3SC(=O)NC3=O)cc2)nc1 (stereo not drawn) [pioglitazone] + O=C(Oc1ccc([N+](=O)[O-])cc1)N1CCC(C(O)(c2ccc3c(c2)OCO3)c2ccc3c(c2)OCO3)CC1 [JZL184] (first compound 2 µM, partner dose 1 µM), which cell count is on record?
Its cell count is 99.8%.

O=C(Nc1cc(C(F)(F)F)cc(C(F)(F)F)c1)c1cc(Cl)ccc1O + Cn1cc(C2=C(c3cn(C4CCN(Cc5ccccn5)CC4)c4ccccc34)C(=O)NC2=O)c2ccccc21 [Enzastaurin] (first compound 0.016 µM, partner dose 0.8 µM) was tested. Which cell count did it give?
The cell count was 102%.

With Cc1ccc(Nc2nccc(N(C)c3ccc4c(C)n(C)nc4c3)n2)cc1S(N)(=O)=O [Pazopanib] + Cn1cc(C2=C(c3cn(C4CCN(Cc5ccccn5)CC4)c4ccccc34)C(=O)NC2=O)c2ccccc21 [Enzastaurin] (first compound 0.4 µM, partner dose 0.8 µM) as the compound, how does the cell count read?
Its cell count is 86.8%.

How did the cell count turn out when O=C(Nc1cc(C(F)(F)F)cc(C(F)(F)F)c1)c1cc(Cl)ccc1O + N.N.[Cl][Pt][Cl] [cisplatin] (first compound 0.016 µM, partner dose 1.6 µM) was run?
Its cell count is 95.9%.

O=C(Nc1cccc(Cl)c1)Nc1ncc(CCNc2ncnc3ccsc23)s1 + O=C(Oc1ccc([N+](=O)[O-])cc1)N1CCC(C(O)(c2ccc3c(c2)OCO3)c2ccc3c(c2)OCO3)CC1 [JZL184] (first compound 0.0008 µM, partner dose 1 µM) was tested. Which cell count did it give?
The cell count was 103%.

Which cell count does the source give for N#Cc1c(O)c2c(-c3ccc(-c4ccccc4O)cc3)csc2[nH]c1=O + Cc1cc(SCc2sc(-c3ccc(C(F)(F)F)c(F)c3)nc2C)ccc1OCC(=O)O [GW0742] (first compound 2 µM, partner dose 2 µM) here?
The cell count was 100%.

How did the cell count turn out when O=C(Nc1cccc(Cl)c1)Nc1ncc(CCNc2ncnc3ccsc23)s1 + Cc1cc(SCc2sc(-c3ccc(C(F)(F)F)c(F)c3)nc2C)ccc1OCC(=O)O [GW0742] (first compound 0.0008 µM, partner dose 2 µM) was run?
The cell count was 104%.

With O=C(Oc1ccc([N+](=O)[O-])cc1)N1CCC(C(O)(c2ccc3c(c2)OCO3)c2ccc3c(c2)OCO3)CC1 + Cn1cc(/C=C2\C(=O)Nc3cccnc32)c2ccccc21 [GW441756] (first compound 1 µM, partner dose 0.4 µM) as the compound, how does the cell count read?
Its cell count is 111%.

How did the cell count turn out when Cn1cnc2c(F)c(Nc3ccc(Br)cc3Cl)c(C(=O)NOCCO)cc21 [selumetinib] + C[As](C)SC[C@H](NC(=O)CC[C@H](N)C(=O)O)C(=O)NCC(=O)O [Darinaparsin] (first compound 0.015 µM, partner dose 0.4 µM) was run?
Its cell count is 83.1%.

Which cell count does the source give for CN(C)S(=O)(=O)c1ccc2c(c1)/C(=C/c1cc3c([nH]1)CCCC3)C(=O)N2 + Cc1cc(SCc2sc(-c3ccc(C(F)(F)F)c(F)c3)nc2C)ccc1OCC(=O)O [GW0742] (first compound 0.4 µM, partner dose 2 µM) here?
Its cell count is 104%.

How did the cell count turn out when C/C(O)=C(\C#N)C(=O)Nc1cc(Br)ccc1Br + CC(C)CCN1c2nc(Nc3cc(F)c(O)c(F)c3)ncc2N(C)C(=O)C1C [BID1870] (first compound 2 µM, partner dose 0.2 µM) was run?
The cell count was 97.7%.

For Cc1cc(N2CCOCC2)cc2[nH]c(-c3c(NC[C@@H](O)c4cccc(Cl)c4)cc[nH]c3=O)nc12 + C/C(O)=C(\C#N)C(=O)Nc1cc(Br)ccc1Br [LFM-A13] (first compound 0.2 µM, partner dose 2 µM), which cell count is on record?
The cell count was 91.5%.

CN(C)S(=O)(=O)c1ccc2c(c1)/C(=C/c1cc3c([nH]1)CCCC3)C(=O)N2 + O=C(Oc1ccc([N+](=O)[O-])cc1)N1CCC(C(O)(c2ccc3c(c2)OCO3)c2ccc3c(c2)OCO3)CC1 [JZL184] (first compound 0.4 µM, partner dose 1 µM) was tested. Which cell count did it give?
Its cell count is 98.3%.

With C/C(O)=C(\C#N)C(=O)Nc1cc(Br)ccc1Br + O=c1cc(-c2cccc3c2Sc2ccccc2S3)oc(N2CCOCC2)c1 [KU55933] (first compound 2 µM, partner dose 1 µM) as the compound, how does the cell count read?
Its cell count is 103%.

Which cell count does the source give for C/C(O)=C(\C#N)C(=O)Nc1cc(Br)ccc1Br + CCCCCCCCCCCC1=C(O)C(=O)C=C(O)C1=O [Embelin] (first compound 2 µM, partner dose 1.2 µM) here?
Its cell count is 102%.

C/C(O)=C(\C#N)C(=O)Nc1cc(Br)ccc1Br + O=C(Oc1ccc([N+](=O)[O-])cc1)N1CCC(C(O)(c2ccc3c(c2)OCO3)c2ccc3c(c2)OCO3)CC1 [JZL184] (first compound 2 µM, partner dose 1 µM) was tested. Which cell count did it give?
The cell count was 104%.

For N#Cc1c(O)c2c(-c3ccc(-c4ccccc4O)cc3)csc2[nH]c1=O + O=C(Oc1ccc([N+](=O)[O-])cc1)N1CCC(C(O)(c2ccc3c(c2)OCO3)c2ccc3c(c2)OCO3)CC1 [JZL184] (first compound 2 µM, partner dose 1 µM), which cell count is on record?
Its cell count is 99.1%.

Which cell count does the source give for Cn1nnc2c(C(N)=O)ncn2c1=O [temozolomide] + Cc1cc(SCc2sc(-c3ccc(C(F)(F)F)c(F)c3)nc2C)ccc1OCC(=O)O [GW0742] (first compound 2 µM, partner dose 2 µM) here?
Its cell count is 97.9%.
